Test results as given in the antibiotic and cytotoxicity screens of Wong et al. (2023).
The other results are listed elsewhere or left out.

How the values were obtained:
HSkMC = human skeletal muscle cells; test: cytotoxicity call (relative viability < 0.9); conditions: 10 µM
HepG2 = test: cytotoxicity call (relative viability < 0.9); conditions: 10 µM
S. aureus RN4220 = test: growth inhibition call (relative growth <= 0.2); conditions: 50 µM

Row | Structure (SMILES) | cytotoxicity call (HSkMC) | cytotoxicity call (HepG2) | growth inhibition call (S. aureus RN4220)
1 | C[C@@H]1CN([C@H](C)CO)C(=O)c2cccc(NC(=O)NC3CCCCC3)c2O[C@@H]1CN(C)S(=O)(=O)c1cn(C)cn1 | inactive | inactive | inactive
2 | COc1ccc(S(=O)(=O)N(C)C[C@@H]2Oc3c(NS(=O)(=O)c4cn(C)cn4)cccc3C(=O)N([C@@H](C)CO)C[C@@H]2C)cc1 | inactive | inactive | inactive
3 | Cc1ccc(S(=O)(=O)Nc2ccc3c(c2)C(=O)N([C@@H](C)CO)C[C@@H](C)[C@H](CN(C)Cc2ccc(-c4ccccc4)cc2)O3)cc1 | inactive | inactive | inactive
4 | C[C@H]1CN([C@@H](C)CO)S(=O)(=O)c2ccc(C#Cc3ccncc3)cc2O[C@H]1CN(C)C(=O)Nc1ccc2c(c1)OCO2 | inactive | active | inactive
5 | Cc1noc(C)c1S(=O)(=O)N(C)C[C@H]1Oc2ccc(N(C)C)cc2CC(=O)N([C@@H](C)CO)C[C@H]1C | inactive | inactive | inactive
6 | C[C@H](CO)N1C[C@H](C)[C@H](CN(C)Cc2ccc(Oc3ccccc3)cc2)Oc2ccc(NS(=O)(=O)c3ccc(F)cc3)cc2CC1=O | active | active | inactive
7 | C[C@H](CO)N1C[C@H](C)[C@@H](CN(C)S(C)(=O)=O)Oc2ccc(NC(=O)Nc3ccccc3)cc2C1=O | inactive | inactive | inactive
8 | O=C(C[C@@H]1CC=CC[C@H](NC(=O)OCC2c3ccccc3-c3ccccc32)C(=O)O[C@@H](c2ccccc2)CNC1=O)N[C@@H](CO)Cc1ccccc1 | active | inactive | inactive
9 | COc1ccc(C#Cc2cccc(-c3nc(C(=O)N[C@@H]4CCN(Cc5ccccc5)C4)cc4c3[C@@H](CCO)N(S(=O)C(C)(C)C)C4)c2)cc1OC (some centres not stated) | inactive | inactive | inactive
